# In the antibiotic and cytotoxicity screens of Wong et al. (2023):
# This is one part of the list.
# Columns and labels:
# HSkMC = human skeletal muscle cells; experiment: cytotoxicity call (relative viability < 0.9); details: 10 µM
# HepG2 = experiment: cytotoxicity call (relative viability < 0.9); details: 10 µM
# S. aureus RN4220 = experiment: growth inhibition call (relative growth <= 0.2); details: 50 µM
SMILES,cytotoxicity call (HSkMC),cytotoxicity call (HepG2),growth inhibition call (S. aureus RN4220)
COc1ccc(S(=O)(=O)Nc2cccc3c2O[C@H](CN(C)C(=O)Nc2cccc4ccccc24)[C@@H](C)CN([C@H](C)CO)C3=O)cc1,inactive,inactive,inactive
C/C=C/C1=C(C(=O)O)N2C(=O)[C@@H](NC(=O)[C@H](N)c3ccc(O)cc3)[C@H]2SC1,inactive,inactive,active
CCC=C(C(=O)NC1C(=O)N2C(C(=O)OCOC(=O)C(C)(C)C)=C(COC(N)=O)CSC12)c1csc(N)n1.Cl (stereo unspecified),inactive,inactive,inactive
CC1(C)SC2C(NC(=O)C(C(=O)[O-])c3ccsc3)C(=O)N2C1C(=O)[O-].[Na+].[Na+] (stereo unspecified),inactive,inactive,inactive
CCCC(=O)N1CC[C@]2(CC1)CN([C@@H](CO)c1c2c2ccc(cc2n1C)OC)C(=O)CN1CCOCC1,inactive,inactive,inactive
COc1ccc(S(=O)(=O)Nc2ccc3c(c2)CC(=O)N([C@@H](C)CO)C[C@@H](C)[C@@H](CN(C)S(=O)(=O)c2ccccc2)O3)cc1,inactive,inactive,inactive
CN(C)CCOc1ccc(C(=C(CCCl)c2ccccc2)c2ccccc2)cc1.O=C(O)CC(O)(CC(=O)O)C(=O)O,active,active,active
C[C@@H]1CN([C@@H](C)CO)C(=O)c2cc(NS(=O)(=O)c3ccc(Cl)cc3)ccc2O[C@@H](C)CCCCO[C@@H]1CN(C)Cc1ccccc1,inactive,active,inactive
C[C@@H]1CCCCO[C@H](CN(C)Cc2ccc(C(=O)O)cc2)[C@@H](C)CN([C@@H](C)CO)C(=O)c2cc(NC(=O)CCC(F)(F)F)ccc2O1,inactive,inactive,inactive
CC=Cc1ccc2n(c1=O)C[C@@H]1[C@@H](CO)[C@H](C(=O)NCCc3cn(C)cn3)[C@H]2N1C(=O)CC,inactive,inactive,inactive
CO[C@H]1O[C@H](CO)[C@@H](OC(=O)Nc2cccc(F)c2)[C@H](OC(=O)Nc2ccccc2-c2ccccc2)[C@H]1OC(=O)Nc1ccccc1-c1ccccc1,active,active,inactive
CN1C(=O)c2cc(NS(C)(=O)=O)ccc2OC[C@H]2O[C@@H](CC(=O)N3CCOCC3)CC[C@@H]21,inactive,inactive,inactive
CC(C)C#Cc1ccc2c(c1)O[C@H](CN(C)C(=O)c1cnccn1)[C@H](C)CN([C@H](C)CO)S2(=O)=O,inactive,inactive,inactive
CCc1nc2c(C)cc(N3CCN(CC(=O)N4CC(O)C4)CC3)cn2c1N(C)c1nc(-c2ccc(F)cc2)c(C#N)s1,inactive,active,inactive
C[C@H]1CN([C@@H](C)CO)C(=O)Cc2cc(NS(=O)(=O)c3ccc(F)cc3)ccc2O[C@@H]1CN(C)C(=O)Nc1cccc2ccccc12,inactive,inactive,inactive
CN(C)S(=O)(=O)Nc1ccc(C(=O)O)cc1,inactive,inactive,inactive
C[C@@H]1CN([C@H](C)CO)S(=O)(=O)c2ccc(C#CC(C)(C)O)cc2O[C@@H]1CN(C)Cc1ccccc1,inactive,inactive,inactive
C[C@@H]1CN([C@@H](C)CO)S(=O)(=O)c2ccc(C#CC3(O)CCCC3)cc2O[C@H]1CN(C)C(=O)Cc1cccnc1,inactive,inactive,inactive
C[C@@H]1CN([C@H](C)CO)C(=O)c2cc(C#CCN(C)C)cnc2O[C@H]1CN(C)C(=O)CCN1CCCCC1,inactive,inactive,inactive

SMILES,cytotoxicity call (HSkMC),cytotoxicity call (HepG2),growth inhibition call (S. aureus RN4220)
C[C@@H]1CCCCO[C@H](CN(C)C)[C@H](C)CN([C@H](C)CO)C(=O)c2cc(NC(=O)Nc3cccc4ccccc34)ccc2O1,inactive,inactive,inactive
C[C@H](CO)N1C[C@H](C)[C@@H](CN(C)C(=O)Nc2ccc3c(c2)OCO3)OCc2ccccc2-c2c(n(C)c3ccccc23)C1=O,inactive,inactive,inactive
C[C@H]1CCCCO[C@@H](CN(C)Cc2ccc(C(F)(F)F)cc2)[C@@H](C)CN([C@@H](C)CO)C(=O)c2cc(NC(=O)Nc3ccc(C(F)(F)F)cc3)ccc2O1,active,active,inactive
C[C@@H]1CN([C@@H](C)CO)C(=O)CCCn2cc(nn2)CO[C@@H]1CN(C)S(=O)(=O)c1ccc(C#N)cc1,inactive,inactive,inactive
NC1(C(=O)O)CCC1,inactive,inactive,inactive
O=C(O)CNC(=O)C1CCC1,inactive,inactive,inactive
Cc1noc(C)c1S(=O)(=O)N(C)C[C@H]1OCCCC[C@@H](C)Oc2ccc(NC(=O)Nc3cccc4ccccc34)cc2C(=O)N([C@@H](C)CO)C[C@@H]1C,inactive,inactive,inactive
C[C@H](CO)N1C[C@H](C)[C@H](CN(C)Cc2ccc(Cl)c(Cl)c2)Oc2ccc(NC(=O)Nc3cccc4ccccc34)cc2CC1=O,inactive,inactive,inactive
CN(C)CCCNC(=O)C[C@@H]1CC[C@H](NS(=O)(=O)c2ccccc2)[C@H](CO)O1,inactive,inactive,inactive
Cc1noc(C)c1S(=O)(=O)N(C)C[C@H]1Oc2ccc(NC(=O)CCCN(C)C)cc2C(=O)N([C@H](C)CO)C[C@@H]1C,inactive,inactive,inactive
NCCN1C(=O)c2[nH]nc(-c3ccccc3)c2[C@H]1c1ccccc1,inactive,active,inactive
C[C@H](CO)N1C[C@H](C)[C@H](CN(C)Cc2ccc(C(F)(F)F)cc2)Oc2ccc(NC(=O)Nc3ccc(C(F)(F)F)cc3)cc2CC1=O,active,active,inactive
O=C(C[C@@H]1C=C[C@H](NS(=O)(=O)c2ccccc2F)[C@@H](CO)O1)NCCCN1CCOCC1,inactive,inactive,inactive
COc1cccc(S(=O)(=O)N[C@H]2CC[C@@H](CCn3cc(-c4ccccc4OC)nn3)O[C@H]2CO)c1,inactive,inactive,inactive
COCC(=O)Nc1ccc2c(c1)C(=O)N(C)C[C@H](OC)[C@@H](C)CN(C(=O)Cc1cccnc1)[C@H](C)CO2,inactive,inactive,inactive
C[C@H](CO)N1C[C@H](C)[C@H](CN(C)S(=O)(=O)c2ccc(-n3cccn3)cc2)OCc2cnnn2CCCC1=O,inactive,inactive,inactive
C[C@H]1CN([C@@H](C)CO)S(=O)(=O)c2ccc(Br)cc2O[C@H]1CN(C)CC1CCOCC1,inactive,inactive,inactive
Cc1ccc(-c2ccc3c(c2)O[C@H](CN(C)C(=O)CN(C)C)[C@@H](C)CN([C@@H](C)CO)S3(=O)=O)cc1,inactive,inactive,inactive
CC[C@@H](N)c1ccc(C)c(C)c1,inactive,inactive,inactive

SMILES,cytotoxicity call (HSkMC),cytotoxicity call (HepG2),growth inhibition call (S. aureus RN4220)
COC(=O)CCCCCCC(=O)N/N=C/[C@H](O)[C@@H](O)[C@@H](O)[C@H](O)C(=O)O,inactive,inactive,inactive
C[C@@H]1CN([C@H](C)CO)C(=O)c2cc(Br)cnc2O[C@@H]1CN(C)Cc1ccc2c(c1)OCO2,inactive,inactive,inactive
Nc1nonc1/C(=N/O)N1CCCCC1,inactive,inactive,inactive
CCOc1ccc(S(=O)(=O)[O-])c2cccnc12.[Na+],inactive,inactive,inactive
Cc1noc(C)c1NC(=O)Nc1ccc2c(c1)C(=O)N([C@H](C)CO)C[C@@H](C)[C@H](CN(C)Cc1ccncc1)OCCCC[C@H](C)O2,inactive,inactive,inactive
C[C@H]1CN([C@@H](C)CO)C(=O)c2cc(NS(=O)(=O)c3ccc(F)cc3)ccc2O[C@H]1CN(C)S(=O)(=O)c1cccs1,inactive,inactive,inactive
C[C@H](CO)N1C[C@H](C)[C@@H](CN(C)C(=O)NC2CCCCC2)Oc2c(NC(=O)c3ccc(-c4nccs4)cc3)cccc2C1=O,inactive,inactive,inactive
C[C@@H]1CN([C@@H](C)CO)C(=O)c2cc(NC(=O)C3CC3)ccc2O[C@@H]1CN(C)Cc1ccc(C(=O)O)cc1,inactive,inactive,inactive
COc1cccc(NC(=O)N(C)C[C@@H]2Oc3ncc(C#Cc4cccnc4)cc3C(=O)N([C@H](C)CO)C[C@@H]2C)c1,inactive,inactive,inactive
C[C@H](CO)N1C[C@H](C)[C@@H](CN(C)S(=O)(=O)c2cccs2)Oc2c(NS(=O)(=O)c3cn(C)cn3)cccc2C1=O,inactive,inactive,inactive
CCCC1OC2CC3C4CCC5=CC(=O)C=CC5(C)C4C(O)CC3(C)C2(C(=O)CO)O1 (stereo unspecified),inactive,inactive,inactive
C[C@H](CO)N1C[C@H](C)[C@@H](CN(C)S(=O)(=O)c2cn(C)cn2)Oc2ccc(NC(=O)Nc3ccc(F)cc3)cc2C1=O,inactive,inactive,inactive
C[C@@H]1CN([C@H](C)CO)C(=O)c2cc(NC(=O)CCC(F)(F)F)ccc2O[C@@H](C)CCCCO[C@@H]1CN(C)S(=O)(=O)c1ccc(F)cc1,inactive,inactive,inactive
C[C@@H]1CCCCO[C@@H](CN(C)C(=O)Nc2cccc3ccccc23)[C@H](C)CN([C@@H](C)CO)C(=O)c2cc(NC(=O)CCC(F)(F)F)ccc2O1,inactive,inactive,inactive
Nc1nccc2c1ncn2[C@@H]1C=C(CO)[C@@H](O)[C@H]1O,inactive,inactive,inactive
COc1cc(-c2ccc(NN=C3C=Cc4c(S(=O)(=O)O)cc(S(=O)(=O)O)c(N)c4C3=O)c(OC)c2)ccc1NN=C1C=Cc2c(S(=O)(=O)O)cc(S(=O)(=O)O)c(N)c2C1=O,active,active,inactive
C[C@H]1CN([C@@H](C)CO)C(=O)c2cc(NS(=O)(=O)c3cccs3)ccc2O[C@@H]1CN(C)S(=O)(=O)c1ccc(F)cc1,inactive,inactive,inactive
CCCCOCCOc1ccc(-c2ccc3c(c2)/C=C(/C(=O)Nc2ccc([S@@](=O)Cc4cncn4CCC)cc2)CCCN3CC(C)C)cc1,active,inactive,inactive
O=C(CCCCC(=O)Nc1c(I)cc(I)c(C(=O)O)c1I)Nc1c(I)cc(I)c(C(=O)O)c1I,inactive,inactive,inactive
